Measured values as given in PubChem BioAssay AID1460 (National Center for Advancing Translational Sciences (NCATS), 2008).
Among all 270,000 compounds or so, about 5,800 (2.1%) were called active. This list was built around the results that the source calls inconclusive (neither active nor inactive); the mix of calls is not that of the screen. The call rests on the fitted dose curve; in most records, active means well fitted inhibition curve with a large enough effect; inconclusive means small, poorly fitted or top-dose-only effect; inactive means flat fitted curve, though single readings scatter. Where the call is inconclusive, the potency comes from a doubtful curve fit.

Target: Microtubule-associated protein tau (Homo sapiens) (UniProt P10636)
Experiment: qHTS for Inhibitors of Tau Fibril Formation, Thioflavin T Binding; further: nearly all actives have a fitted effect of over 55% in size
Conditions: recombinant tau K18 P301L (four-repeat tau fragment), heparin-induced fibrillization, ThT fluorescence; series mostly up to 57.4 µM
Procedure, shortened: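 Heparin-induced fibrillization of the P301L-mutant K18 repeat-domain fragment of human tau was followed by ThT binding in quantitative high-throughput format.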
Potency means the concentration at half of the fitted maximal effect; tags describe the fitted curve by direction and shape.

UniProt P10636, sequence (P10636 whole entry, looked up): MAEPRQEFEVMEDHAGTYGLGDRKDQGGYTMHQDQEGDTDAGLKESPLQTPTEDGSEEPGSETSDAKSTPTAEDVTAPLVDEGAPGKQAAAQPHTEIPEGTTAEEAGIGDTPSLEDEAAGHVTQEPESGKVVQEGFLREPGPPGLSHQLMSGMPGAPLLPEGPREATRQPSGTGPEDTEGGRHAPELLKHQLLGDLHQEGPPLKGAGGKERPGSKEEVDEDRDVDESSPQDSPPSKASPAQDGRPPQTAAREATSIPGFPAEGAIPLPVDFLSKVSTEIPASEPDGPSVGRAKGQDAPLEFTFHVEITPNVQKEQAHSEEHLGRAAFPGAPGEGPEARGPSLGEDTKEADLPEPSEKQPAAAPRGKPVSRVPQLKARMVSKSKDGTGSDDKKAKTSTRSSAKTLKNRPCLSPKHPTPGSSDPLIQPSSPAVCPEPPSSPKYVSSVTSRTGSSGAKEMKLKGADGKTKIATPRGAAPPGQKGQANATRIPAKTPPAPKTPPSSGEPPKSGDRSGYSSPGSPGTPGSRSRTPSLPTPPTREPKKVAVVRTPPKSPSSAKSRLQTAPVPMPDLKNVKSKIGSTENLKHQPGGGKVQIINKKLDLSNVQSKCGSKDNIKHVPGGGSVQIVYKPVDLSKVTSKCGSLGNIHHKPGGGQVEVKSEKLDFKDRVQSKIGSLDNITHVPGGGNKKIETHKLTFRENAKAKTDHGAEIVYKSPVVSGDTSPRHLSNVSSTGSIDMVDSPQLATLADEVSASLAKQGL

| Compound | Potency |
| --- | --- |
| N#C/C(=C/c1cn(Cc2ccc(F)cc2)c2ccccc12)C(=O)Nc1cccc(Cl)c1 | inconclusive: 0.0501 µM [inhibitor, full curve, poor fit] |
| CN(C)c1ccc(-c2ccncc2)cc1 | inconclusive: 3.98 µM [inhibitor, partial curve] |
| CC(=O)Nc1ccc(C(=O)OCC(=O)Nc2ccccc2Sc2ccccc2)cc1 | inconclusive: 35.5 µM [inhibitor, single point] |
| N#Cc1ccc(N2C(=O)[C@@H]3C(C(=O)c4cnccn4)=NN[C@@H]3C2=O)cc1 | inconclusive: 39.8 µM [inhibitor, single point] |
| O=C(CCl)Nc1nc(-c2ccco2)c(-c2ccco2)s1 | inconclusive: 15.8 µM [inhibitor, partial curve] |
| O=C(Nc1ccc2nc3ccccc3nc2c1)c1ccc(Br)cc1 | inconclusive: 1.26 µM [inhibitor, full curve] |
| Cc1ccc(Nc2nnc(SCc3cc(=O)n4ccsc4n3)s2)c(C)c1 | inconclusive: 20 µM [inhibitor, partial curve, poor fit] |
| S=c1[nH]nc(-c2ccncc2)n1/N=C/c1cn(-c2ccccc2)nc1-c1ccccc1 | inactive |
| O=C(Nc1ccc(N2CCCCC2)cc1)c1ccccc1 | inconclusive: 25.1 µM [inhibitor, partial curve, poor fit] |
| CCOc1ccccc1NC(=O)c1c(NC(=O)c2ccccc2C)sc2c1CCC(C)C2 (stereo not given) | inconclusive: 14.1 µM [inhibitor, single point] |
| O=C(CC1c2ccccc2Oc2ccccc21)Nc1ccccc1C(F)(F)F | inactive |
| CCn1c(/C=C/Nc2ccccc2)[n+](CC)c2ccc(Cl)cc21 | inactive |
| COc1cc(C(=O)Oc2c(Sc3ccc(C)cc3)c(C)nn2-c2ccccc2)cc(OC)c1OC | inconclusive: 11.2 µM [inhibitor, partial curve] |
| O=C1/C(=C/c2ccc3c(c2)OCO3)CCC/C1=C\c1ccc2c(c1)OCO2 | active: 3.98 µM |
| Cc1nn(C)c(C)c1S(=O)(=O)N1CCCC(C(=O)N2CCN(c3ccc(Cl)cc3)CC2)C1 (stereo not given) | inactive |
| CCOC(=O)CSc1ncc(OC)c(Sc2ccc(Cl)cc2)n1 | inactive |
| O=C(CCCn1c(=S)[nH]c2cc3c(cc2c1=O)OCO3)N1CCN(c2ncccn2)CC1 | inconclusive: 0.891 µM [inhibitor, full curve] |
| COc1ccc(NC(=O)/C(C#N)=C/C=C/c2ccco2)cc1 | active: 7.08 µM |
| COc1ccccc1/C=C/C=N/n1c(-c2cc(-c3ccccc3)n[nH]2)n[nH]c1=S | inconclusive: 35.5 µM [inhibitor, single point] |
| COc1ccc(OC)c(N/C(C)=C/C(=O)c2ccc(C)o2)c1 | inconclusive: 14.1 µM [inhibitor, partial curve] |
| COc1ccccc1/C=C/C=N\N1CCN(Cc2ccccc2Cl)CC1 | inconclusive: 14.1 µM [inhibitor, partial curve] |
| O=Nc1c(-c2cccc([N+](=O)[O-])c2)nc2ncccn12 | active: 3.98 µM |
| Cn1c(=O)c2cc(C(=O)N3CCN(c4ccc(Cl)cc4)CC3)sc2c2ccccc21 | inactive |

| Compound | Potency |
| --- | --- |
| Cc1ccc(C(=O)N(Cc2ccc(N(C)C)cc2)Cc2ccco2)cc1 | inconclusive: 28.2 µM [inhibitor, single point] |
| O=C(COC(=O)c1ccc[nH]c1=O)c1ccc(Cl)s1 | inactive |
| NC(=O)CC(NC(=O)c1ccccc1)c1ccc(N2CCC(Br)CC2)c([N+](=O)[O-])c1 (stereo not given) | inconclusive: 35.5 µM [inhibitor, partial curve, poor fit] |
| CCCCCC(=O)N(O)C1CC(=O)N(c2ccccc2)C1=O (stereo not given) | inconclusive: 7.94 µM [inhibitor, partial curve] |
| O=C(Cc1cc(=O)[nH][nH]1)N/N=C/c1c(F)cccc1Cl | inconclusive: 2.82 µM [inhibitor, full curve] |
| COc1ccc(OCCCSc2ncccn2)cc1 | inconclusive: 14.1 µM [inhibitor, partial curve] |
| N#C/C(=C/c1ccc(N2CCOCC2)c([N+](=O)[O-])c1)C(N)=O | inconclusive: 14.1 µM [inhibitor, partial curve] |
| CC1CCN(Cc2c(O)ccc3c2O/C(=C\c2ccco2)C3=O)CC1 | inconclusive: 39.8 µM [activator, single point] |
| CC1=C(C)CC2C(=O)N(c3cccc4ccccc34)C(=O)C2C1 (stereo not given) | inconclusive: 25.1 µM [inhibitor, single point] |
| Cc1ccc2c(c1)cc(C(=O)Nc1ccc(F)cc1F)n2C | inactive |
| Nc1nc(NCc2ccco2)nc(N2CCCCC2)c1[N+](=O)[O-] | inactive |
| O=C(NCC(=O)N(Cc1ccco1)C(C(=O)NC1CCCCC1)c1cccnc1)c1ccco1 (stereo not given) | inactive |
| Cc1ccn2c(Nc3ccc4c(c3)OCCO4)c(-c3ccc(Cl)s3)nc2c1 | inconclusive: 22.4 µM [inhibitor, partial curve] |
| COC(=O)c1n[nH]n(-c2ccccc2)c1=O | inactive |
| Cc1cccc(Nc2cc(=O)[nH]c(=O)[nH]2)c1 | inconclusive: 28.2 µM [inhibitor, single point] |
| C=CCCC(=O)Nc1nc(C)c(-c2csc(Nc3ccc(Cl)cc3Cl)n2)s1 | active: 7.94 µM |
| NC(=S)N=Nc1c(O)[nH]c2cc(F)c(F)cc12 | inconclusive: 8.91 µM [inhibitor, partial curve] |
| CCOC(=O)c1ccc(NC(=O)c2nc[nH]c2C(=O)N2CCC(C)CC2)cc1 | inactive |
| CN(C)/N=C/c1ccc(N2CCOCC2)cc1 | inconclusive: 28.2 µM [inhibitor, partial curve] |
| Cc1ccc(/C=C/C(=O)c2cc(Br)ccc2OC(=O)c2ccco2)cc1 | inconclusive: 15.8 µM [inhibitor, partial curve] |
| CN(Cc1ccccc1)c1nc(-c2ccc([N+](=O)[O-])cc2)nc2ccccc12 | inconclusive: 15.8 µM [inhibitor, single point] |
| COc1cccc(-c2nccc(-n3ccnc3)n2)c1 | inconclusive: 14.1 µM [inhibitor, partial curve, poor fit] |
